Measured values as given in the GPR68 mutational scans of Howard et al. (2025).
Scores whose standard error is large were omitted. Two further conditions of the source, in which the scores hardly spread, are not listed. Read del as a deletion of the residues named and ins as an insertion between two positions. For part of these data: The concentration of ogerin is not given here.

B1: GPR68, Q15743 (parent)
chain: MGNITADNSSMSCTIDHTIHQTLAPVVYVTVLVVGFPANCLSLYFGYLQIKARNELGVYLCNLTVADLFYICSLPFWLQYVLQHDNWSHGDLSCQVCGILLYENIYISVGFLCCISVDRYLAVAHPFRFHQFRTLKAAVGVSVVIWAKELLTSIYFLMHEEVIEDENQHRVCFEHYPIQAWQRAINYYRFLVGFLFPICLLLASYQGILRAVRRSHGTQKSRKDQIQRLVLSTVVIFLACFLPYHVLLLVRSVWEASCDFAKGVFNAYHFSLLLTSFNCVADPVLYCFVSETTHRDLARLRGACLAFLTCSRTGRAREAYPLGAPEASGKSGAQGEEPELLTKLHPAFQTPNSPGSGGFPTGRLA

Key:
[1] = variants of: B1; assay: cAMP reporter score (Enrich2 score, wild type = 0); higher = more signal; HEK293T, FACS bins
[2] = variants of: B1; assay: surface expression score (Enrich2 score, wild type = 0); higher = more signal; HEK293T, FACS bins

| Variant | cAMP reporter score ([1]; pH 5.5) | cAMP reporter score ([1]; pH 6) | cAMP reporter score ([1]; pH 6, modulator: ogerin) | cAMP reporter score ([1]; pH 6.5, modulator: ogerin) | surface expression score [2] |
| --- | --- | --- | --- | --- | --- |
| P126_F127insGSG | -1.23 | -1.23 | -1.64 | -1.12 | -2.04 |
| F127_R128insGS | -1.42 | -1.73 | -1.66 | -1.51 | -2.56 |
| F129_H130insGS | -1.32 |  | -1.68 | 0.416 | -1.83 |
| F129_H130insGSG | -0.96 |  | -0.191 | -1.18 | -1.1 |
| F129_Q131del | -2.15 | -1.97 | -2 | -1.37 | -2.41 |
| H130A | -0.336 | -1 | 0.517 | -0.903 | -0.013 |
| H130C | 0.179 |  | -0.721 | -0.404 | -0.812 |
| H130D | -0.72 | -0.544 | -1.06 | -0.889 | -1.54 |
| H130E | -0.756 | -1.18 | -0.884 | -0.834 | 0.013 |
| H130G | 1.41 | 0.063 | 1.34 | 0.23 | 0.423 |
| H130K | -0.244 | -0.237 | -0.113 | -0.455 | 0.244 |
| H130L | 0.124 | 0.305 | 0.767 | 0.971 | -0.155 |
| H130M | 1.02 | 0.076 | 1.16 | -0.522 | 0.68 |
| H130N | -0.436 | -0.72 | -0.745 | -0.948 | -0.101 |
| H130P | -0.875 | -1.89 | -0.347 | -0.087 | 1.19 |
| H130Q | 0.131 | 1.23 | 0.094 | 0.976 | 0.826 |
| H130R | 0.496 | 0.064 | 0.815 | 0.406 | 1.57 |
| H130T | -0.494 | -0.598 |  |  |  |
| H130V | 0.339 | -0.47 | 0.711 | 0.014 | 0.17 |
| H130W | -0.793 | -0.83 | -1.29 | -0.949 | -1.84 |
| H130Y | -0.543 | -0.205 | -0.527 | -0.621 | -0.7 |
| H130_Q131insG | -1.57 |  | -1.06 | -0.78 | -1.41 |

| Variant | cAMP reporter score ([1]; pH 5.5) | cAMP reporter score ([1]; pH 6) | cAMP reporter score ([1]; pH 6, modulator: ogerin) | cAMP reporter score ([1]; pH 6.5, modulator: ogerin) | surface expression score [2] |
| --- | --- | --- | --- | --- | --- |
| H130del | -1.59 | -1.71 | -2.13 | -1.8 | -1.88 |
| Q131A | -0.704 |  | -2.07 | -0.489 | -2.17 |
| Q131C | 0.324 |  |  | -1.04 | -0.443 |
| Q131D | 1.27 | -0.026 | 0.706 | -0.542 |  |
| Q131E | -0.704 | -0.002 | -0.501 | -0.774 | -1.38 |
| Q131F | -1.1 | -0.933 | -1.07 | -1.51 | -1.46 |
| Q131G | 1.28 | -0.132 | 2.34 | 0.327 | -0.107 |
| Q131H | 0.089 | -1.03 | -0.295 | -0.46 | -1.03 |
| Q131I | 0.21 |  | -0.208 | -0.13 |  |
| Q131K | -0.509 | -0.082 | -0.529 | -0.29 | 1.1 |
| Q131L | -0.598 | -1.16 | -0.534 | -0.547 | -2.77 |
| Q131M | 0.098 | -0.028 | -0.274 | -0.493 | -0.149 |
| Q131N | 0.182 |  | 0.125 | 0.014 | 1.01 |
| Q131P | -0.531 | -0.448 | -0.525 | -0.683 | -1.22 |
| Q131R | -0.391 | 0.108 | -0.423 | -0.701 | -0.342 |
| Q131S | 0.988 | -0.405 | 1.03 | 0.415 | 1.03 |
| Q131T | -0.163 | -0.701 |  | -1.57 | 0.305 |
| Q131V | 0.798 | 3.01 | 0.352 | 1.51 |  |
| Q131Y | 0.338 | 0.11 | -0.794 | -0.685 | -0.474 |
| Q131_F132insGS | -0.215 | -0.511 | -0.632 | -0.611 | -3.07 |
| F132_R133insG | -0.811 | -1.27 | -1.75 | -1.24 | -3.15 |
| F132_R133insGS | -0.801 | -0.234 | -0.058 | -1.03 | -2.88 |

| Variant | cAMP reporter score ([1]; pH 5.5) | cAMP reporter score ([1]; pH 6) | cAMP reporter score ([1]; pH 6, modulator: ogerin) | cAMP reporter score ([1]; pH 6.5, modulator: ogerin) | surface expression score [2] |
| --- | --- | --- | --- | --- | --- |
| F132_R133insGSG | -1.34 |  | -2.95 | -0.639 | -2.09 |
| F132del | -1.86 | -1.68 | -2.09 | -1.76 | -2.31 |
| R133_L135del | -1.38 | -0.615 | -1.22 | -1.31 | -2.53 |
| R133_T134insGS | -1.72 | -1.15 | -1.83 | -0.331 | -2.45 |
| R133_T134insGSG | -0.67 | -1.19 | -0.991 | -0.908 | -2.85 |
| R133del | -1.45 | -1.32 | -2.3 | -0.865 | -2.49 |
| T134_L135del | -0.282 | 0.473 | -0.385 | -0.463 | -2.08 |
| T134_L135insG | -1.09 | -0.522 | -0.565 | -0.674 | -3.17 |
| T134_L135insGS | -0.774 | 0.361 | -0.545 | -0.415 | -2.99 |
| T134_L135insGSG | -0.93 | -1.47 | -1.72 | -0.75 | -2.75 |
| K136A | -0.099 | -2.03 | -1.03 | -1.72 | -1.63 |
| K136C | -0.431 |  | -0.652 | -0.395 |  |
| K136D | -2.01 | -0.579 |  | -1.46 |  |
| K136E | -0.709 | 0.118 | 0.358 | 0.248 | -0.982 |
| K136F | -1.2 | -1.63 | -0.811 | -0.468 | -2.24 |
| K136G | -0.164 | -0.552 | -0.156 | -0.945 | -0.715 |
| K136H | -0.408 |  | -0.688 | -1.24 |  |
| K136I | 0.258 |  |  | -1.75 | -2.11 |
| K136L | -1.95 | -0.872 | -2.09 |  | -2.76 |
| K136M | -0.661 | 0.523 | -1.08 | -0.878 | -0.914 |
